In all, about 280,000 compounds went through this assay and about 540 (0.19%) were called active. Inconclusive results, whose numbers are uncertain, are shown with a selection of clear calls. Calls come from the whole dose curve; as a rule, active = well fitted activation curve with a large enough effect; inconclusive = small, poorly fitted or top-dose-only effect; inactive = flat fitted curve, though single readings scatter. Where the call is inconclusive, the potency comes from a doubtful curve fit.
Assay: Quantitative High-Throughput Screen for Regulators of Epigenetic Control; note: nearly all actives have a fitted effect of over 60% in size
Settings: murine LDR cells, GFP reporter derepression, 30 h; series mostly up to 53.9 µM
How it was run: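 In this reporter-derepression format, murine cells bearing a silenced integrated CMV-GFP locus incubate with test compound (30 h, 37 C), then are washed and imaged; fluorescent objects of 20–120 um count as induced cells.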
Potency is the fitted concentration of half-maximal effect; tags give direction and shape of the fitted curve.

SMILES	Potency
CCc1ccc(-c2[nH]nc3nc(-c4ccc(OC)cc4)cc(C(=O)NCCc4ccc(OC)c(OC)c4)c23)cc1	inconclusive: 25.1 µM [activator, single point]
COc1cccc(Nc2nc3ccc(C(=O)c4ccccc4)cc3n3cnnc23)c1	inconclusive: 35.5 µM [activator, single point]
CCOC(=O)/C=c1\s/c(=C\c2c(OC)ccc3ccccc23)c(=O)n1CC(=O)NCC1CCCO1 (stereo not drawn)	inconclusive: 31.6 µM [activator, single point]
CCN(CC)c1ccc2cc(NC(=O)CCC(=O)O)c(=O)oc2c1	inactive
C=CCOc1ccc2cccc(/C=N/NC(=O)c3cc4cc([N+](=O)[O-])ccc4s3)c2c1	inconclusive: 5.62 µM [activator, single point]
COc1ccc(-n2c(=O)c3sc4ccccc4c3n(CC(=O)Nc3ccccc3F)c2=O)cc1	inconclusive: 31.6 µM [activator, single point]
C(=C\c1ccco1)/C1=NN(c2ccccc2)C(c2ccco2)C1 (stereo not drawn)	inconclusive: 31.6 µM [activator, single point]
CC(NCc1ccccc1)C1COc2ccccc2O1 (stereo not drawn)	inactive
CCCCS/C(N)=N/N=C/c1ccccc1O	inconclusive: 22.4 µM [activator, single point]
Cc1ccc(SC(=O)c2c([N+](=O)[O-])c(C)nn2C)cc1	active: 22.4 µM
Cc1ccc2cc3c(N)c(C(=O)Nc4c(C)[nH]c(=O)[nH]c4=O)sc3nc2c1	inconclusive: 28.2 µM [activator, single point]
COc1ccc(NC(=O)CSc2nc3ccccc3n2Cc2cccc(OC)c2)cc1	inconclusive: 17.8 µM [activator, partial curve]
CCc1cc(-c2n[nH]c(C)c2-c2nc3ccccc3s2)c(O)cc1OCC(=O)NN	inconclusive: 35.5 µM [activator, single point]
CCOC(=O)c1ccccc1NC(=O)N1CCC(CN2CCCCC2)CC1	inactive
CCOC(=O)c1ccc(NC(=O)c2ccc(CO)c(C(=O)NC3CCN(C(=O)OCC)CC3)c2)cc1	inconclusive: 15.8 µM [activator, single point]
CCOC(=O)C(=NC1CCS(=O)(=O)C1)NNc1ccc(Br)cc1 (stereo not drawn)	inconclusive: 5.62 µM [activator, partial curve]
COc1ccc(Cn2c(=O)c3oc4ccccc4c3n(CC(=O)Nc3ccc(F)cc3F)c2=O)cc1	active: 11.2 µM
Cc1ccc(-c2nnn(CC(=O)N(Cc3ccc(F)cc3)C(C(=O)NC3CCCC3)c3ccncc3)n2)o1 (stereo not drawn)	inconclusive: 31.6 µM [activator, single point]
Cc1cc(NC(=O)C2CCN(S(=O)(=O)c3ccc(Br)s3)CC2)ccc1Br	inconclusive: 35.5 µM [activator, single point]
c1cc2c(cc1C1=NNC(=NC3CC3)SC1)OCCO2	active: 28.2 µM
O=C(c1ccc(COc2ccc(Cl)cc2)o1)N1CCN(Cc2ccc3c(c2)OCO3)CC1	inactive
Cc1ccc(Cn2c(=N)n(CC(=O)c3ccc([N+](=O)[O-])cc3)c3ccccc32)cc1	inconclusive: 31.6 µM [activator, single point]
COc1cccc(C(=O)Nc2c(F)c(F)c(F)c(F)c2F)c1	inconclusive: 35.5 µM [activator, single point]

SMILES	Potency
O=C(Nc1cccc(Cl)c1)c1cc2c(=O)[nH]c3ccccc3c2s1	inconclusive: 31.6 µM [activator, single point]
CCN(CC)c1ccc2cc(C(N)=O)/c(=N\NC(=O)c3ccncc3)oc2c1	inconclusive: 5.62 µM [activator, single point]
Cc1ccc(NC(=O)c2sc3nc4c(cc3c2N)CN(Cc2ccccc2)CC4)cc1	inconclusive: 15.8 µM [activator, single point]
O=[N+]([O-])c1cc([N+](=O)[O-])c(N2CCCCCC2)cc1NCCO	inconclusive: 0.891 µM [activator, single point]
COc1ccc2c(C)nc(Nc3nc(-c4ccccc4)cc(=O)[nH]3)nc2c1	active: 3.55 µM
O=c1c2c3nc4ccccc4nc3n(CC3CCCO3)c2ncn1CCc1ccccc1 (stereo not drawn)	inactive
O=[N+]([O-])c1ccc(Sc2cccc3cccnc23)c2cccnc12	inconclusive: 5.62 µM [activator, single point]
O=C1/C(=C/c2ccccc2[N+](=O)[O-])COc2ccccc21	inconclusive: 5.62 µM [activator, single point]
CCOc1ccc(N2C(=O)CS/C2=C(\C(Cl)=C(Cl)Cl)[N+](=O)[O-])cc1	inconclusive: 22.4 µM [activator, single point]
Cc1ccc(NC(=O)Cn2c(=O)n(CC3CCCO3)c(=O)c3ccccc32)cc1 (stereo not drawn)	inactive
Cc1cc(=O)n(CC(=O)N2CCN(c3ccccc3F)CC2)c2c1c(C)nn2C	inactive
COC(=O)c1c(NC(=O)CSc2ncnc3[nH]ncc23)sc2c1CCC2	inconclusive: 35.5 µM [activator, single point]
O=[N+]([O-])c1cc(S(=O)(=O)N2CCCCCC2)ccc1Cl	inconclusive: 35.5 µM [activator, single point]
Cc1ccc(C(=O)c2cn(CC(=O)Nc3ccc(C)cc3Cl)c3nc(C)ccc3c2=O)cc1	inconclusive: 35.5 µM [activator, single point]
CC(=O)Nc1nnc(CCS(=O)(=O)c2ccc(Cl)cc2)s1	inconclusive: 25.1 µM [activator, single point]
CCOc1cc([N+](=O)[O-])cc2c1C(=O)Nc1ccccc1O2	inconclusive: 22.4 µM [activator, single point]
CN(C)c1ccc(N2CN=C3SCC(=O)N3C2)cc1	inconclusive: 14.1 µM [activator, partial curve]
COc1cccc(/C=N/NC(=O)Cn2nc(C)c([N+](=O)[O-])c2C)c1O	inactive
Cc1ccccc1N1C(S)=C(C#N)C(=O)NC1c1cccs1 (stereo not drawn)	inconclusive: 35.5 µM [activator, single point]
CCSC1=NC(C)(C)C=C(/C=C/c2ccc(Cl)cc2Cl)N1	inconclusive: 28.2 µM [activator, single point]
O=[N+]([O-])c1ccc(-c2nc3ccc([N+](=O)[O-])cc3[nH]2)cc1	inactive
O=C(CSc1nnc(-c2ccc(C(F)(F)F)cn2)s1)c1ccc(Cl)cc1	inactive
CC1(C)CC2(C)OC(=N)C1(C#N)C2(C#N)C#N (stereo not drawn)	inconclusive: 31.6 µM [activator, single point]

SMILES	Potency
COc1ccc(N2C(S)=C(C#N)C(=O)NC23CCCCC3)cc1	inconclusive: 31.6 µM [activator, single point]
Cc1cccc(-c2nnc(C3CCN(S(=O)(=O)c4cccc(Cl)c4)CC3)o2)c1	inconclusive: 22.4 µM [activator, single point]
Cc1ccc(NC(=O)c2ccc(NCc3ccc(F)cc3)nc2)cc1	inconclusive: 15.8 µM [activator, single point]
COc1ccc(N2CCN(C(=O)c3ccc(Cn4c(=S)[nH]c5ccc(N6CCOCC6)cc5c4=O)cc3)CC2)cc1	inactive
Cc1ccnc2nc(C(=O)Nc3ccc(S(=O)(=O)N4CCCC4)cc3)nn12	inconclusive: 17.8 µM [activator, single point]
CCOC(=O)Nc1ccc(NCc2ccc(F)cc2)nc1N	inactive
COc1ccc2c(c1)C(c1ccccc1C)CC(=O)O2 (stereo not drawn)	inactive
CCc1ccccc1NC(=O)c1ccc2c(c1)N(Cc1cccc(Cl)c1)C(=O)c1ccccc1S2(=O)=O	inactive
COC(=O)[C@@]1(Cc2ccc(F)cc2)[C@H]2c3cc(C(=O)N4CCCC4)n(Cc4ccccc4)c3C[C@H]2CN1C(=O)c1ccccc1	inconclusive: 22.4 µM [activator, single point]
COc1ccc(CCNC(=O)CN2C(=O)NC(CCSC)C2=O)cc1 (stereo not drawn)	inconclusive: 35.5 µM [activator, single point]
Cc1cccc2cc(C#N)c(SCC(=O)N3CC(=O)Nc4ccccc43)nc12	active: 20 µM
Cc1cc(-c2csc(NC(=O)c3ccc(=O)[nH]c3)n2)c(C)n1Cc1ccco1	inactive
CCCn1c(/C=N/Nc2nc3ccccc3[nH]2)nc2ccccc21	inconclusive: 25.1 µM [activator, single point]
CCCCOc1ccc(C(=O)Nc2cccc(-c3nc4cccnc4s3)c2)cc1	inactive
O=C(NC1CCC(NC(=O)C2CCCO2)CC1)C1CCCO1 (stereo not drawn)	inactive
O=c1c(-c2ccco2)[n+]([O-])c2ccccc2n1OCc1c(F)cccc1F	inconclusive: 17.8 µM [activator, single point]
O=c1cc(-c2ccccc2Cl)oc2c([N+](=O)[O-])c(O)cc(O)c12	inactive
O=C(NCC1CCN(Cc2cccc(Cl)c2)CC1)Nc1cc(Cl)ccc1Cl	inactive
C/C(NC(=O)c1cccc(F)c1)=C1/C(=O)C[C@@H]2[C@H]1C2(C)C	inactive
N#CC(c1nc2ccccc2nc1N1CCCCC1)S(=O)(=O)c1ccc(Cl)cc1 (stereo not drawn)	inconclusive: 31.6 µM [activator, single point]
O=C1C2=CC[C@@H]3C(=O)N(c4ccc(F)cc4F)C(=O)[C@H]3[C@H]2[C@H](O)[C@H]2O[C@H]12	inconclusive: 5.62 µM [activator, single point]
Cc1cccnc1NCc1ccc(O)c2ncccc12	active: 6.31 µM

Reference: PubChem BioAssay AID1865 (National Center for Advancing Translational Sciences (NCATS), 2009)
